In PubChem BioAssay AID662 (National Center for Advancing Translational Sciences (NCATS), 2007):
Out of some 71,000 compounds screened, about 1,800 (2.5%) were called active. The shares of active, inactive and inconclusive entries below differ from those in the screen. Calls follow the shape of the dose curve; as a rule, active = well fitted activation curve with a large enough effect in the signal ratio, with a control signal flat (not every such curve was filed as active); inconclusive = small, poorly fitted or top-dose-only effect, or effect the other way, or a change in a side signal; inactive = flat fitted curve, though single readings scatter; the % refers to the signal ratio. Where the call is inconclusive, the potency comes from a doubtful curve fit.

experiment: Cell signaling CRE-BLA (Fsk stim); conditions: CHO CRE-bla reporter (cAMP response element driving beta-lactamase), forskolin EC10, beta-lactamase ratio; activity change, negative = inhibition: at 38.2 µM (top of the series) unless noted; as to activity change, negative = inhibition: % of control where 0% means no effect
In short: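 Forskolin analogue NKH 477 at EC10 stimulated CRE-driven beta-lactamase in CHO cells alongside compound dilution series. Beta-lactamase was measured with CCF4, excitation 405 nm, emission ratio 460/530 nm.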
Potency is read from the fitted curve at half-maximal effect; tags tell the direction and shape of the fitted curve.

SMILES	Potency	activity change, negative = inhibition
CCOC(=O)c1sc(NC(=O)c2ccco2)nc1-c1ccccc1	inconclusive: 1.26 µM [rising, full curve, poor fit]	–
Cc1cccc(OCC2=NS(=O)(=O)c3ccccc3N2)c1	–	inconclusive: -33.8%
COCCNC(=O)COc1ccc(OCCNC[C@@H](O)COc2ccccc2)cc1	–	inactive: -29.1%
Cc1ccc(S(=O)(=O)Nc2ccc(Br)cc2/C=N/n2cnnc2)cc1	inconclusive: 12.6 µM [falling, partial curve]	–
Cc1ccc2cccc(S(=O)(=O)Nc3c(C)n(C)n(-c4ccccc4)c3=O)c2n1	–	inactive: 5.73%
O=c1c2c(nc3cc(-c4ccc(F)cc4)[nH]n13)CCCC2	–	inconclusive: 23.7%
CCOC(=O)N1CCN(C(=O)Cc2ccc(-n3c(=S)[nH]c4ccccc4c3=O)cc2)CC1	–	inconclusive: 1.21%
O=C1c2ccccc2C(=O)N1Cc1nc2ccccc2c(=O)n1CCCn1ccnc1	–	inactive: -0.647%
CCOC(=O)c1c(C)[nH]c(C(=O)OCC(=O)N2c3ccccc3CC2C)c1C (centres undefined)	inconclusive: 12.6 µM [rising, single point]	–
CCCCNC(=O)CCC(=O)Nc1ccc2nc(N3CCOCC3)cc(C)c2c1	–	inactive: 12.5%
Cc1cccc(C)c1NC(=O)CSCC(=O)O	–	inconclusive: -5.13%
CCOC(=O)c1cnc(SCc2nc(N)nc(Nc3ccc(C)cc3)n2)nc1N	inconclusive: 12.6 µM [rising, partial curve]	–
FC(F)(F)COc1nc(N2CCCCC2)nc(N2CCNCC2)n1	–	inconclusive: 19.3% [at 7.6 µM]
O=C(CN1C(=O)NC2(CCSC2)C1=O)N1CCN(c2ccc(F)cc2)CC1 (centres undefined)	–	inactive: -12.4%
CC1=CC(C)(C)Nc2cc(C)c(C)cc21	–	inactive: -4.24%
CCCCCn1c(CN2CCCCC2C)nc2c1c(=O)n(C)c(=O)n2C (centres undefined)	inconclusive: 1.26 µM [rising, partial curve]	–
COc1ccc(OC)c(Nc2ncnc3c2cnn3-c2cccc(C)c2)c1	inconclusive: 10 µM [rising, partial curve]	–
COC(=O)c1cc(NC(=O)C23CCC(C)(C(=O)O2)C3(C)C)cc(C(=O)OC)c1 (centres undefined)	inconclusive: 3.16 µM [rising, full curve, poor fit]	–
CCC1S/C(=C(\C#N)C(=O)NCc2ccco2)N(c2ccc(F)cc2)C1=O (centres undefined)	–	inconclusive: 2.78%
CC(C)S	–	inactive: -1.17%
Cc1nc2ccc3nc(NC(=O)C4COc5ccccc5O4)sc3c2s1 (centres undefined)	–	inconclusive: 4.8%
Cc1c(N2C(=O)C(C)SC23C(=O)Nc2ccccc23)c(=O)n(-c2ccccc2)n1C (centres undefined)	–	inconclusive: -5.09%
COc1ccccc1-c1noc(-c2ccncc2)n1	–	inactive: 16.3%
CCOc1ccccc1NC(=O)C1CC2CCCC(C1)C2=O (centres undefined)	–	inconclusive: 6%
O=S(=O)(c1cccs1)N1CCN(CC(O)COC2CCCc3ccccc32)CC1 (centres undefined)	–	inactive: -6.4%
COCCn1c(=O)c(-c2ccccc2)nc2cnc(OC)nc21	active: 12.6 µM	–
Cc1[nH]nc2c1C(c1ccccc1F)CC(=O)N2 (centres undefined)	inconclusive: 0.0316 µM [rising, full curve, poor fit]	–

SMILES	Potency	activity change, negative = inhibition
O=C1CC2(CCCCC2)Oc2ccc(OCC(=O)N3CCOCC3)cc21	–	inconclusive: 18.1%
CN(c1ccc(C(=O)N2CCCCC2)cc1)S(C)(=O)=O	inconclusive: 0.316 µM [rising, full curve, poor fit]	–
CCOc1cc(C2C(C(=O)OC)=C(C)N=C3SC(C)C(=O)N32)ccc1OC(C)=O (centres undefined)	–	inconclusive: 29.1%
O=C(CN1CCN(S(=O)(=O)c2ccc(F)cc2)CC1)Nc1cccc(C(F)(F)F)c1	–	inactive: 15%
O=C(c1cnccn1)N1CCC[C@@]2(CCN(c3cccc(-c4ccccc4)c3)C2)C1	–	inactive: 4.19%
CC1(C)OC(=O)N(c2cccnc2)C1(C)O (centres undefined)	–	inconclusive: -16.8%
COC(=O)c1c(NC(=O)CSc2nncs2)sc2c1CCCCC2	active: 6.31 µM	–
CCN(CC)CCNC(=O)c1c(O)c2cc(OC)c(OC)cc2[nH]c1=O	–	inactive: 4.07%
O=C(CSc1nnnn1-c1ccccc1)CC(=O)Nc1ccc(Cl)cc1	–	inactive: -14.2%
COC(=O)c1cc(C(=O)OC)cc(S(=O)(=O)Nc2ccc(Cl)c(N)c2)c1	–	inactive: -3.42%
CCOc1ccc(CCN2C(=O)C3C4C=CC(C4)C3C2=O)cc1OCC (centres undefined)	–	inactive: 1.4%
Cn1cc(C(=O)c2ccc(Cl)cc2)cc1-c1nc2ccccc2n1C	inconclusive: 31.6 µM [falling, single point]	–
COc1ccc2[nH]c3ccccc3c2c1	–	inactive: 7.35%
CCn1c(SCC(=O)NCc2ccco2)nc2cccnc21	inconclusive: 20 µM [rising, single point]	–
CN1/C(=C\C(=O)COC(=O)Cn2nnc(-c3ccccc3)n2)C(C)(C)c2ccccc21	inconclusive: 2.51 µM [falling, single point]	–
COc1ccc(C[N+](C)(C)N)cc1OC	–	inactive: 14.7% [at 7.6 µM]
CNc1oc(Cc2ccccc2)nc1S(=O)(=O)c1ccccc1	–	inconclusive: -2.32%
COc1ccc(S(=O)(=O)c2c(N)n(Cc3ccco3)c3nc4ccccc4nc23)cc1	inconclusive: 12.6 µM [rising, single point]	–
COc1ccc(S(=O)(=O)NCC(c2cccnc2)N2CCN(c3ccc(F)cc3)CC2)cc1C (centres undefined)	–	inconclusive: -2%
CCN(CC)CCOC(=O)c1ccc(NC(=O)CCNC(=O)Cn2ccc3ccccc3c2=O)cc1	–	inactive: -5.04%
COc1ncc2nc(C)c(=O)n(C)c2n1	–	inactive: 11.8%
Nc1c(C(=O)NC2CCCC2)sc2nc(-c3cccs3)ccc12	–	inconclusive: -2.25% [fluorescent]
CNc1ncnc2ccc(-c3ccccc3C)cc12	inconclusive: 10 µM [rising, partial curve]	–
COc1ccc2[nH]c(C(=O)O)c(NS(=O)(=O)c3ccc(OC)c(OC)c3)c2c1	–	inactive: -1.03%
CCn1c(=O)c(C(=O)NCc2ccccn2)c(O)c2ccccc21	active: 7.94 µM	–
Cc1ccc(SCc2[nH]nc3c2C2(CCSCC2)C(C#N)=C(N)O3)cc1	–	inconclusive: -8.34%
CCC(=O)OCC(=O)[C@@]1(OC(=O)CC)[C@H](C)C[C@@H]2[C@@H]3[C@H]([C@@H](O)C[C@@]21C)[C@]1(C)C=CC(=O)C=C1C[C@@H]3Cl	–	inactive: -4.91% [at 17.1 µM]

SMILES	Potency	activity change, negative = inhibition
CCn1c(SCC(=O)Nc2cc3oc4ccccc4c3cc2OC)nnc1-c1cccs1	–	inconclusive: -22.9%
CC1=C(C(=O)OCC2CCCO2)C(c2ccncc2)C2=C(CC(C)(C)CC2=O)N1 (centres undefined)	inconclusive: 12.6 µM [rising, partial curve]	–
CCCCN(Cc1ccccc1)C(=O)C1CCCN(S(=O)(=O)c2cnc[nH]2)C1 (centres undefined)	–	inactive: -1.68%
CCOc1cc(-c2c(C)c(CC)nc(N)c2C#N)ccc1O	inconclusive: 12.6 µM [rising, single point]	–
CC1(C)Cc2c(sc3c2c(=N)n(Cc2ccco2)c(=O)n3CC(=O)Nc2cccc(Cl)c2)CO1	inconclusive: 1.58 µM [rising, full curve]	–
N#C/C(=C\c1ccc(O)c(O)c1)C(=O)NCCCc1ccccc1	inconclusive: 25.1 µM [rising, single point]	–
COc1cc2nc(NCC3CCCO3)n3nc(-c4cccnc4)nc3c2cc1OC (centres undefined)	inconclusive: 2 µM [rising, full curve, poor fit]	–
COC(=O)[C@@]1(Cc2ccc(F)cc2)[C@H]2c3cc(C(=O)N4CCCC4)n(CCc4c[nH]c5ccc(OC)cc45)c3C[C@H]2CN1C(=O)c1ccccc1	inconclusive: 7.94 µM [falling, partial curve]	–
COC(=O)c1ccccc1NC(=O)c1ccc(NS(C)(=O)=O)cc1	inconclusive: 12.6 µM [rising, single point]	–
CN(c1ccccc1C(=O)O)S(=O)(=O)c1ccc2c3c(cccc13)C(=O)N2	–	inconclusive: -4.08%
COc1ccc(-n2c(=O)c(-c3ccc(F)cc3)nc3cncnc32)cc1	–	inactive: -1.18%
O=C(NCc1cccnc1)C1CCN(S(=O)(=O)c2cccnc2)CC1	–	inconclusive: 1.85%
CCNS(=O)(=O)c1ccc(NC(=O)c2ccccc2OCC)cc1	inconclusive: 10 µM [rising, partial curve]	–
Nc1ncc(-c2cc3ccccc3oc2=O)s1	–	inconclusive: 0.258%
COc1ccccc1CCn1c(=O)c(C)nc2cncnc21	–	inconclusive: -3.57%
CCOc1ccc2[nH]c(=O)c(CN(Cc3ccccc3)C(=O)N3CCCC3)cc2c1	–	inactive: 8.01%
CC(C)C(=O)Nc1cccc(-c2nc3ccccc3o2)c1	inconclusive: 0.0316 µM [rising, full curve, poor fit]	–
O=C(NCc1cccs1)c1cc2ccccc2o1	inconclusive: 5.01 µM [falling, single point]	–
O=C(O)CCCC[C@@H]1SC[C@H]2NC(=O)N[C@H]12	–	inconclusive: -5.62%
CC(O)CNc1nc2c(c(=O)n(C)c(=O)n2C)n1Cc1cccc(Br)c1 (centres undefined)	–	inconclusive: 6.13%
c1ccc(-c2cc(-c3nnc4sc(-c5ccccn5)nn34)[nH]n2)cc1	inconclusive: 12.6 µM [rising, partial curve]	–
O=C(Nc1ccc2c(c1)OCCO2)c1ccncc1	inconclusive: 2 µM [falling, partial curve, poor fit]	–
C=CCn1c(NC(=O)c2ccco2)c(S(=O)(=O)c2ccccc2)c2nc3ccccc3nc21	active: 10 µM	–
COCCn1c(SCC(=O)Nc2cc(Cl)ccc2OC)nc2c(c1=O)SC(C)C2 (centres undefined)	inconclusive: 12.6 µM [rising, partial curve]	–
CCCn1c(=O)c2ccccc2n2c(SCc3nc4ccccc4s3)nnc12	inconclusive: 3.16 µM [rising, full curve]	–
